The record followed here is the supplement of paper PMC3334620.

The full ranking holds about 33,000 sequences; the median of “E-score (-0.5 to 0.5)” is about -0.041, and the highest 2% start at about 0.37. The list shows a part of the results.

The experiment has as its target T1, Ecm22 (UniProt Q05958).
T1 sequence: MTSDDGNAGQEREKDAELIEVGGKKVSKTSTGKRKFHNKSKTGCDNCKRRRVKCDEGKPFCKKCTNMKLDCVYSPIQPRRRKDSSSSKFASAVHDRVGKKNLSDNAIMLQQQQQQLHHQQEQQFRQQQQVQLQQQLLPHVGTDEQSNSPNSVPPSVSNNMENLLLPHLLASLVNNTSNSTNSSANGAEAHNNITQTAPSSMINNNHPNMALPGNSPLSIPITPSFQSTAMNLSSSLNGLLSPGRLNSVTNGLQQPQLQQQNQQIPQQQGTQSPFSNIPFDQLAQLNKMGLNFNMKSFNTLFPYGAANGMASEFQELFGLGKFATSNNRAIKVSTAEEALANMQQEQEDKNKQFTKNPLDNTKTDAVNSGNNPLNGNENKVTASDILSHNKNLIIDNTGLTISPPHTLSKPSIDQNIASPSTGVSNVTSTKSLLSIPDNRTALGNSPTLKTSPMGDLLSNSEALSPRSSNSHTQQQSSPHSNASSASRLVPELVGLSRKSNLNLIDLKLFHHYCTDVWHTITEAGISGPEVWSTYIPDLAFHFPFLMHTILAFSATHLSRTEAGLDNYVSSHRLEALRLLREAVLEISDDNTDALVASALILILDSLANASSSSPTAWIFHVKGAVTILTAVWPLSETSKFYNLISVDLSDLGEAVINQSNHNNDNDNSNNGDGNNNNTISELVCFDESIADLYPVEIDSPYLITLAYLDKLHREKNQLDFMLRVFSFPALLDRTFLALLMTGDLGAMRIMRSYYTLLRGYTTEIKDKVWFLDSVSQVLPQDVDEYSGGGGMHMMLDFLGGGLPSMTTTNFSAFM
In words: PBM E-score (8-mer binding enrichment) (E-score (-0.5 to 0.5)); higher = stronger / more preferred TF binding; most listed sequences are background and not binding sites. As to conditions: protein concentration: 200 nM; construct: GST-full length. An outline of the steps:
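GST-tagged yeast TFs (full-length or DNA-binding domain) were made by PURExpress in vitro transcription/translation and applied at about 100-200 nM to universal all-10-mer Agilent arrays. The arrays were made double-stranded by primer extension, on fresh or once-stripped slides. Bound protein was detected with fluorescent anti-GST, and scans were normalised with masliner. Each ungapped eight-base word, pooled with its reverse complement, received an E-score (modified Wilcoxon-Mann-Whitney statistic) from the Universal PBM Analysis Suite.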
Consider ATGTCTGA, for which the “PBM E-score” value was -0.26.

Regarding CAGTGAAA, the “PBM E-score” value was 0.0739. In the case of ACATTAAC, the “PBM E-score” value is 0.0785.

On to ACGAGGAT, for which the “PBM E-score” value came to 0.387. The figure for AGTTCCGC is 0.09; for AGCGTCCT it is -0.0237. For CTCCTTAC the value was -0.0103; for GTTTTTCA, -0.0423. For ATGGGATA the value was -0.134; for ATCGCATA, 0.289.

For GAAAACCA, the “PBM E-score” value is -0.164. For TGACTCAA the value was 0.0196.

For ATCCAAAT, the “PBM E-score” value was 0.0399.

Regarding GCGGGCCC, the “PBM E-score” value was -0.241. Regarding ATTCCCAA, the “PBM E-score” value is -0.0415. Take CCCTCTTC: the “PBM E-score” value was 0.0455. For ACTGCTCA the value was 0.0103; for AGATTCCG, -0.132. For GGTCCTTA the value was -0.116; for CAAAAGGA, -0.01.

On to AGAGAGCT, for which the “PBM E-score” value is -0.169. For CCAGGCCG the value was -0.0156; for CGCACATA, -0.0429; for AGTTGGGG, -0.126.

As to ATTCAAGA, the “PBM E-score” value is -0.0721. Consider GACGAACA, for which the “PBM E-score” value was 0.0113. The figure for GGCAGAAA is 0.156. For CGCTAGTC the value was -0.237; for GTCCTCAC, -0.152; for AACGGCTA, 0.151. For the sequence ATAGGCCC, the “PBM E-score” value is -0.166.

In the case of AAGCAATA, the “PBM E-score” value was -0.0375.

On to AAGTACAC, for which the “PBM E-score” value came out at 0.12. The figure for CTCGTCTA is 0.142.

On to AGACAGTG, for which the “PBM E-score” value was -0.166. For GAAATCTA the value was 0.0244. For AGCACAGA the value was -0.0411; for AGACTTTA, -0.112; for AGGGAATG, -0.23.

As to CCTGTCGC, the “PBM E-score” value was found to be 0.0728.

On to AGAATTCT, for which the “PBM E-score” value was 0.107. As for ATGTCTGG, the “PBM E-score” value was -0.0247. For GTAGTTTA the value was 0.0546. The figure for CCTTTTTC is -0.205; for GAATAGCA it is -0.0396; for ACCCCGTA it is 0.32. The figure for AAAAAAAC is -0.137. Consider GAAACGAC, for which the “PBM E-score” value was determined as 0.41. For CAAGGACG the value was -0.122. For ACCTAACA the value was 0.149; for GCTGCACA, -0.152.

Turning to ACTTGAGG, the “PBM E-score” value was -0.234. For CGCCGGCA the value was -0.119; for ACGGGCCA, -0.0769; for CAAAGGCC, -0.162.

Take CCCCTGCG: the “PBM E-score” value is -0.11. The figure for GACTGTGC is -0.0661. The figure for CCGACCCA is 0.0621. The figure for AACAGTAC is 0.159. Consider CTTGAGGC, for which the “PBM E-score” value is -0.225. In the case of AAGTACGC, the “PBM E-score” value stood at 0.0885.

ATTGTACA: the “PBM E-score” value was -0.0596. For TTATGCAA the value was 0.0525; for ACGCTGGC, 0.0814; for ACTGAACG, 0.334. The figure for GTGACAGA is -0.0918; for CGAATCCG it is 0.227; for CAGATATA it is 0.029. For CACGCTCC the value was -0.227; for ATTCAACA, 0.117; for AGCCTTTC, -0.136. With GAAGTCAA, the “PBM E-score” value is -0.0483. For CCTTTAAC the value was 0.143; for AATCCTTA, -0.151; for ATTCGCGA, 0.292. For the sequence CCCCCCCG, the “PBM E-score” value is -0.179. For AAAAGCCT, the “PBM E-score” value is -0.337. The figure for ATAGTCAT is -0.125; for GTGTATAA it is -0.026. For GCCCTCGC the value was 0.262; for ATGTGGCG, -0.0824. The figure for CCCGGGCC is -0.131; for CACACTCA it is -0.0867; for AATAGGGT it is -0.0879.

In the case of CCGACGCC, the “PBM E-score” value is 0.0374.

CCGACTGA: the “PBM E-score” value was -0.0407.
